This is an account of results in PMC12136788.

Some of the results follow.

To fix the notation:
T1: UNK ZnF1-3 (human, UniProt Q9C0B0 31-174)
T1 sequence: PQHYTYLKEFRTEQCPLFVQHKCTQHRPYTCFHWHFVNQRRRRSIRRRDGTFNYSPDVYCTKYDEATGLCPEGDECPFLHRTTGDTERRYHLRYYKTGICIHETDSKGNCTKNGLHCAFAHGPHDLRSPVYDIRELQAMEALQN

B1: chr4:128860887:128860888:-_ENSMUSG00000040928_ENSMUST00000106061|mus_mus|FALSE|FALSE (ssRNA)
RNA: GGGAGUUCUACAGUCCGACGAUCGAACACGUCAUAUUGUGUGGAGCUGCUGGAGCAAUCUCUGCCUUUGCCACGAGACCAAAUGGAAAAAGGUUUCAACUCCCGCUGGCUGUUCCUUCCAGGAGACUUGUCAAAGUGAUUGACCAACAGAGGAUUGAGCAUCA
B2: chr7:126859785:126859786:-_ENSMUSG00000030942_ENSMUST00000033236|mus_mus|motif|central (ssRNA)
RNA: GGGAGUUCUACAGUCCGACGAUCACCUGCAGUGAUGAGACAUCAGAUUUGCAAACAAAACAAACAAAAACCCAAGAAAAACGGACAGCAGAAAGCAUCACAAAGUGAUUCCCAUAUAAUCCACAAUGCAGCUUCUCUAUGUGUCAACAGAGGAUUGAGCAUCA
B3: 82789453_82789656_950_CDS_ENSG00000038427_ENST00000343200|human|control|control (ssRNA)
RNA: GGGAGUUCUACAGUCCGACGAUCAUAACAGCCUACUCUGGGAGCCCGGAUGGGAUAUCUGACAGUCUGAUCAGCCAGCCAGCCUGCGUCACACUGCUCAAAUCCAUCUUCAUAGGCAGCAAAGAGCUGCUCUGGAGUUGCUAUCAACAGAGGAUUGAGCAUCA
B4: 148358182_148415857_270_CDS_ENSMUSG00000028975_ENSMUST00000103217|mouse|control|control (ssRNA)
RNA: GGGAGUUCUACAGUCCGACGAUCAACCACUGGGGUAGCUGGGCCCAGGGGUGAAGGCUCGUCGGCAGCUGUGCCCGACUGCUGGAAAGCCAGGUCAAUCUCUUCGUCUGUCAGUCCUUUCUUCUUAAGAAAUGCUCUCCUGGUCAACAGAGGAUUGAGCAUCA
B5: chr5:37680062:37680063:+_ENSMUSG00000029121_ENSMUST00000031004|mus_hu|mus_mus_mus_hu_False|1_48 (ssRNA)
RNA: GGGAGUUCUACAGUCCGACGAUCUUUGGGUGUAGCUGGUACCUCGUACACAGGACCGUCAUACAUGCCCCUGGAAACCCCUUGCAACCCGAAAACCUUAUUCCUGAUUUUGACGCGCUGGUACAGGUGCUCCGGGAAUGGCUUCAACAGAGGAUUGAGCAUCA
B6: chr1:58468927:58468928:-_ENSMUSG00000026034_ENSMUST00000148330|mus_mus|mus_mus_mus_hu_False|8_108 (ssRNA)
RNA: GGGAGUUCUACAGUCCGACGAUCAAUCUAUAAUUACGAUGUUCAUUACCUUAGCUAUGUACUUAAUGAACCAAAUUACCCAAACAAAAUAAACAUGGCAAUAUAAAAAUGUUAAGAAUUUACAAAGAUUAAAAGCUUAACUUACAACAGAGGAUUGAGCAUCA
B7: 10352105_10355188_1590_CDS_ENSG00000054523_ENST00000377093|human|control|control (ssRNA)
RNA: GGGAGUUCUACAGUCCGACGAUCCUCAGACAUUAGUGGGUCUUCAUUGAGGUUAACAAGAUGUGGGGUCUUUUUAGGUGAGAAAACCCCUAGGGUUCCUCCAUCUUCCCGAAUGGCAACUCCCAUCUCAGCCAACAAAGCCUCCAACAGAGGAUUGAGCAUCA
B8: chr1:27731043:27731044:-_ENSG00000158195_ENST00000430629|hu_hu|motif|central (ssRNA)
RNA: GGGAGUUCUACAGUCCGACGAUCGAAGAGCUCCUUUCCCAUCCUCAGGGGAAGAGUGCCUGUUUUCAAACGGCAUCCCGGCGGCACAUAUACCCCCCUUCCCUAAAAUCUUGAUGUGGCAAACACACCCAAGAACCCACAGGACAACAGAGGAUUGAGCAUCA
B9: 148797332_148798597_1152_CDS_ENSMUSG00000002957_ENSMUST00000003038|mouse|control|control (ssRNA)
RNA: GGGAGUUCUACAGUCCGACGAUCUAGGUUCGUCUCCCGGUGCUGCAGGAACUGGCCCAGCUGGUUGCAGGCGCGGACGAGCAAGUUUGGCUCACUGUCAUGGUGGAUGAUCAGGCUGAUGGCCUCAAACAGCACAGCGUUCUUCAACAGAGGAUUGAGCAUCA
B10: chr12:79978091:79978092:+_ENSMUSG00000021116_ENSMUST00000071230|mus_hu|motif|central (ssRNA)
RNA: GGGAGUUCUACAGUCCGACGAUCGCUUUCCAGCUGCUCAUCCUUGGUGUAUUCUAACACCUCAGCAACAUGACGAAGAAUGCGGUAAACAGUUUUGGAUUUUGUGAAUUUGUCUUCACAUUUGAUUGCUUCCUCUGGAGAAACCAACAGAGGAUUGAGCAUCA
B11: chr3:180328061:180328062:+_ENSG00000163728_ENST00000412756|hu_mus|FALSE|FALSE (ssRNA)
RNA: GGGAGUUCUACAGUCCGACGAUCGCUCAUGUUUACUGACAUCCCGCGAUCCAGAGUAUGUAUAUUUUUUUUGUUUUUCAAGUGAUUUCCAAGAGUAGUCUGAACUUGCUGGUGAAGUAGAGUACUUCACAGAACUUGGCUCCCCAACAGAGGAUUGAGCAUCA
B12: chr1:150204246:150204247:-_ENSG00000143401_ENST00000314136|hu_hu|motif|central (ssRNA)
RNA: GGGAGUUCUACAGUCCGACGAUCGAAAGUAUCAUUCAGGCCUUCAAUUUCCCCAUUGACACACAGGCAAUUAUCAAGGACGGACUCUGUCACCUCCUCCGGGGAUCUGUUCCUUAACUCCAGGUUAAUCUUCUUCUUCAUCUCCAACAGAGGAUUGAGCAUCA
B13: chr1:225611761:225611762:-_ENSG00000143815_ENST00000272163|hu_mus|FALSE|FALSE (ssRNA)
RNA: GGGAGUUCUACAGUCCGACGAUCCCAGGCCAUCGGCCUCUGACCACUUCACCCUCAACAAACUUCCUACUUGGCAUUUUCUAAAAUUAGUCUGGCCGCGCUCCGGCGGGAACUCCAGCCACUCCAGGACAGUCACCAGCAGCCCAACAGAGGAUUGAGCAUCA
B14: chr10:61154807:61154808:+_ENSMUSG00000020088_ENSMUST00000020285|mus_hu|FALSE|FALSE (ssRNA)
RNA: GGGAGUUCUACAGUCCGACGAUCCAACUCUUUUAUGAGGUCAAAGUCACUUUUGAUAACUGAAAACGAAAAAGGAAGGUGCUAUAGAGAGAAAUUAAAUUUCACAAAAGUAUAAAAGCAAAGACUGGCUAAAAUCUGUAACUUCAACAGAGGAUUGAGCAUCA
B15: chr6:17872010:17872011:+_ENSMUSG00000029534_ENSMUST00000127322|mus_hu|FALSE|FALSE (ssRNA)
RNA: GGGAGUUCUACAGUCCGACGAUCUUCACUGUCUCCUCUCUUCAGGAUAUGUUCUGGGGGUAGGAUUAAGCUUUUCAUUUCUAGUAGGUAUUUUGGCACAUGAGGAUUGAAUUCCACAGCUCUAUGAAUGGCCUCUACUGCAUUCAACAGAGGAUUGAGCAUCA
B16: 6413478_6413598_216_CDS_ENSG00000147854_ENST00000276893|human|control|control (ssRNA)
RNA: GGGAGUUCUACAGUCCGACGAUCGAACAGCGCCCACACCCGCUCGCGCAGCUCCUCAAUCGUGGCUUUGCGAGACACGUCCUCAAUGGUGCACGUCUUGGAGCCAUCAAUGGUGCGAACCUGUAUCCACAUCUUGGCGCCUAGCAACAGAGGAUUGAGCAUCA
B17: chr5:144087797:144087798:-_ENSMUSG00000001844_ENSMUST00000161915|mus_hu|FALSE|FALSE (ssRNA)
RNA: GGGAGUUCUACAGUCCGACGAUCUCUCUGAAGACAUUCUGGAAUUAUACAGGAAAAUAUCUGUGCUCCUCCCCUGGCCAGGCCUUUCAAGCUAUGGGUUUUCGAGCAGACGCAGAUAAGAACAAGACCCAUCAGCACCGAAGCCAACAGAGGAUUGAGCAUCA
B18: chr12:42180722:42180723:-_ENSMUSG00000036295_ENSMUST00000043884|mus_hu|mus_mus_mus_hu_True|38_58 (ssRNA)
RNA: GGGAGUUCUACAGUCCGACGAUCCUGUAGGAGAAGAAUCUGUGUGUUAGCUGGCAAUCUGGCUGGGAAAGUUAAAAGCCCUAAAUCAUUACAAUCCACUGUCGAUGCUUCCAUAUAAAUGGAUCUGGGUGUAAACCAAGGCCUCAACAGAGGAUUGAGCAUCA
B19: chr5:138700276:138700277:+_ENSG00000120727_ENST00000265192|hu_hu|FALSE|FALSE (ssRNA)
RNA: GGGAGUUCUACAGUCCGACGAUCUUCCAGCAUUUCUUGGAAACAGCGUUCAAUAAAUUCUUCUUCCCAUAACUCCUCUUCUAUUUGUCUGUUGAAUUCUUCUUCAUUUUCCAUCCACAUGUACUCUGCAAAUGGAUUGUCAUCCAACAGAGGAUUGAGCAUCA
B20: 32079262_32079382_106_5pUTR_ENSMUSG00000022781_ENSMUST00000023467|mouse|control|control (ssRNA)
RNA: GGGAGUUCUACAGUCCGACGAUCAGGGCGGAGGGGAGCGGCGCGGGGCGCGGCCGUCGCUACCGAGGCCGUGAGGCGCAGAACCCCUUGGGCCAGGGAGGGGAGGGCAGGAGCCUUCGGCAAUGGCGACGGCCCGGGCCGGAGCAACAGAGGAUUGAGCAUCA
B21: 91041409_91063878_293_CDS_ENSG00000106723_ENST00000375859|human|control|control (ssRNA)
RNA: GGGAGUUCUACAGUCCGACGAUCGUUGGCAGAUACUCCAGCAUGGCCUGCAUCAGCUCUGGACCGCUGGCCAGGUGUCUUUCCGAAUGGGGUCUUCAUUCAUCUGUAUUUAAGUGAGCAGCGGAGCUGCUGGACUAGGGUGAACAACAGAGGAUUGAGCAUCA
B22: chr7:141438946:141438947:+_ENSG00000106028_ENST00000265304|hu_mus|hu_hu_hu_mus_True|28_58 (ssRNA)
RNA: GGGAGUUCUACAGUCCGACGAUCGACGAAAUACCUGUAACACAGGUCUUCGAAACAUGGCUUCUGUUUUUCUUACAGUCUAAUCUUUAGGCUUUUCCUAAAGGAAAAACCCGAGCAAGAAAAAUGAUAAAUCAAGAAACUACACAACAGAGGAUUGAGCAUCA

The target in this experiment is T1, UNK ZnF1-3. The experiment is described as follows: nsRBNS (natural sequence RNA bind-n-seq); RBNS binding buffer (assumed for nsRBNS): 25 mM Tris pH 7.5, 150 mM KCl, 3 mM MgCl2, 0.01% Triton X-100, 500 ug/ml BSA, 20 U/ml SUPERase-In, 4 C; UNK is unkempt and MSI1 is Musashi-1; names of the RNAs are library labels; protein concentration not given here; high values mean tight binding.
B1: the binding signal came to 0.988 enrichment R.
Regarding B2, the binding signal turned out to be 2.76 enrichment R.
Molecule B3 displayed a binding signal of 1.28 enrichment R.
For B4, the binding signal was determined as 1.11 enrichment R.
On to B5, for which the binding signal was 0.668 enrichment R.
B6 gave a binding signal of 0.895 enrichment R.
For the molecule B7, the binding signal is 0.802 enrichment R.
Consider B8, for which the binding signal came to 1.29 enrichment R.
As for B9, the figure is 1.15 enrichment R; as for B10, 0.612 enrichment R.
The value for B11 was 0.692 enrichment R; that for B12 was 0.791 enrichment R.
Molecule B13 yielded a binding signal of 1.29 enrichment R.
B14: the binding signal was found to be 1.8 enrichment R.
The value for B15 was 1.17 enrichment R.
On to B16, for which the binding signal is 0.621 enrichment R.
B17 yielded a binding signal of 1.05 enrichment R.
The molecule B18 showed a binding signal of 1.35 enrichment R.
Consider B19, for which the binding signal was found to be 0.607 enrichment R.
The molecule B20 showed a binding signal of 0.57 enrichment R.
As to B21, the binding signal is 0.701 enrichment R.
As for B22, the figure is 0.394 enrichment R.
